About 540 (0.36%) of roughly 150,000 compounds showed an effect of 50% or more. The list shows a part of the results.

For the experiment, the system named is Plasmodium falciparum. Kind of experiment: Primary screen in NF54 nanoGlo assay, in single point, at 2uM, 72h; a lower Z score goes with more inhibition. It is filed as functional, Erythrocyte. The note with it: timepoint 72 hour.
As to `COC[C@H]1CN(c2cc3nncn3c(C)n2)CC(C)(C)O1`, the % Inhibition (in general, the change of the read-out against control, counted positive when it falls) was -28% and the Z score is 2.96.
With `Cc1ccc(C2=Nc3ccccc3N=C(C(F)(F)C(F)F)C2)cc1`, the “% Inhibition” value is reported as -1% and the Z score was determined as 0.16.
Turning to `c1nc(-c2noc(C3CC3C3CCCCC3)n2)cs1` (stereo not given), the “% Inhibition” value was found to be 4% and the Z score is given as -0.53.
For the compound `O=S(=O)(Nc1cc(CO)ccc1Br)N1CCCC1`, the “% Inhibition” value was determined as 2% and the Z score is recorded as -0.3.
For `C[C@@H](C(N)=O)N1CCCN(S(=O)(=O)c2ccc3c(c2)OCCO3)CC1`, in that order: -4% and 0.67.
Regarding `CC(C)c1nnc(NC(=O)[C@H]2CCN(C3CCCCC3)C2)[nH]1`, the “% Inhibition” value is listed as 9% and the Z score is listed as -1.36.
In the case of `CCOC(=O)C1(F)CN(CCOC2CCCCO2)CC12COC2` (stereo not given), the “% Inhibition” value is recorded as -3% and the Z score was found to be 0.4.
Consider `O=C1COc2cccc(C(=O)N3CCC([C@H]4CCOC4)CC3)c2N1`, for which the “% Inhibition” value is on record as -12% and the Z score was determined as 1.28.
Turning to `Cc1cc(N2CCOCC2)n2nc(CN3CCC[C@H](C)C3)nc2n1`, the “% Inhibition” value is recorded as -4% and the Z score amounted to 0.51.
On to `COC(C)C(=O)N1CCOC(c2ccc(Br)cc2)C1C` (stereo not given), for which the “% Inhibition” value was 0% and the Z score was 0.
Turning to `CCn1c(C)cc(C)c(-c2nc(Cc3ccc(OC)cc3)n[nH]2)c1=O`, the “% Inhibition” value is -12% and the Z score turned out to be 1.42.
Take `Clc1cc(CN2CCCN(C[C@H]3CCCO3)CC2)cc2c1OCCO2`: the “% Inhibition” value was -2% and the Z score worked out at 0.37.
In the case of `C[C@H](NC(=O)N(C)CC(F)F)c1ccc(OCC(F)(F)F)cc1`, the “% Inhibition” value is given as -5% and the Z score is reported as 0.98.
As for `CCn1cnc2c(c1=O)CCN([C@H]1CCN(c3cc(OC)cc(OC)c3)C1=O)C2`, the “% Inhibition” value is on record as -7% and the Z score was found to be 0.76.
With `Cc1ccc2c(c1)C(NC(=O)c1nccnc1C(N)=O)C(C)C2` (stereo not given), the “% Inhibition” value is given as -4% and the Z score is 0.34.
Turning to `COc1cncc(CN2C[C@@H]3CN(C(=O)c4cnn(C)c4C)C[C@]3(C)C2)n1`, the “% Inhibition” value is on record as 7% and the Z score is -1.14.
The matching figures for `Cc1cc(Oc2ncccn2)ccc1NC(=O)N1CCOCC1`: 40% and -1.4.
For the compound `CCC(=O)N1CC[C@H](Nc2ccc(Br)cc2C#N)C1`, the “% Inhibition” value was 3% and the Z score is given as -0.28.
The matching figures for `CC1CN(C(=O)Cn2cc(NC(=O)c3cnn(C(C)(C)C)c3)cn2)CC(C)O1` (stereo not given): -5% and 0.81.
Take `O=C(NCCc1csc(-c2ccccc2)n1)c1ccncc1Cl`: the “% Inhibition” value stood at 4% and the Z score is listed as -0.77.
Regarding `Cc1cccc(NC(=O)C2[C@H]3C=C[C@@]4(O3)C(C(=O)NC3CCCCC3C)N(C3CCCCC3)C(=O)[C@@H]24)c1` (stereo not given in full), the “% Inhibition” value is recorded as -6% and the Z score was 0.88.
On to `O=C(NC[C@@]1(CCO)CCOC1)c1occ2c1CCC2`, for which the “% Inhibition” value is reported as -1% and the Z score is reported as 0.22.
The matching figures for `Cc1ccsc1CN(C)Cc1cc(CN2CCCC2)cs1`: -7% and 1.05.
In the case of `CCOC(=O)c1csc([C@@H]2CCCN2c2ncccn2)n1`, the “% Inhibition” value was -8% and the Z score is 1.1.
As to `Oc1ccc2cc(CN3CCC[C@H](CN4CCCC4)C3)ccc2c1`, the “% Inhibition” value was determined as 97% and the Z score is -3.
For `CC1CCC(NC(=O)c2cc(N3CCC[C@H](C)C3)nc3ccccc23)CC1` (stereo not given in full), the “% Inhibition” value came out at 3% and the Z score is given as -0.48.
As for `CC(CO)(CO)NC(=O)C(F)(F)c1ccccc1C(F)(F)F`, the “% Inhibition” value is -12% and the Z score is listed as 1.3.
For `CCCCCc1nnc(NC(=O)N2CC[C@H](C(N)=O)C2)s1`, the “% Inhibition” value is -1% and the Z score was 0.25.
The matching figures for `COc1ncccc1C(=O)N[C@H]1CCN(Cc2ccsc2)C1`: -8% and 1.29.
In the case of `Cn1cc(CCC(=O)OCC#Cc2ccc(Oc3ccccc3)cc2)cn1`, the “% Inhibition” value was 0% and the Z score was 0.
Take `CCc1nn(C)cc1NC(=O)c1cccnc1NC`: the “% Inhibition” value is listed as 2% and the Z score is -0.33.
Regarding `CC1(C)CN(S(=O)(=O)c2cccnc2)c2c(Br)cccc21`, the “% Inhibition” value is -7% and the Z score came out at 1.04.
Consider `O=C1CC[C@@]2(CCCN(c3ncccc3F)C2)CN1Cc1ccccc1`, for which the “% Inhibition” value is listed as 9% and the Z score is -1.35.
Turning to `O=C(NCCc1csc(N2CCCC2)n1)c1c(F)ccc(O)c1F`, the “% Inhibition” value is -14% and the Z score amounted to 2.2.
Consider `CCCCC(CC)CNC(=O)[C@H]1CCC(=O)N1` (stereo not given in full), for which the “% Inhibition” value was -4% and the Z score came to 0.47.
Take `CNC(=O)c1nnsc1N1CCC(Cc2ccccc2)CC1`: the “% Inhibition” value was -2% and the Z score is given as 0.28.
`Cc1ccc(Cl)cc1NC(=O)CN1CN(c2ccccc2)c2ncccc2S1(=O)=O`: the “% Inhibition” value is listed as -14% and the Z score is 1.55.
On to `CCc1cnc(NC(=O)COC[C@H]2CCCO2)o1`, for which the “% Inhibition” value amounted to 0% and the Z score turned out to be 0.01.
As for `COC(=O)[C@@H]1C[C@H](O)CCN1C(=O)c1c(-c2ccccc2)noc1C`, the “% Inhibition” value is reported as 10% and the Z score is given as -1.21.
Turning to `CC(C)Cc1cc(C(=O)OC[C@H]2CCCO2)[nH]n1`, the “% Inhibition” value was 2% and the Z score was -0.46.
With `CCCc1nc(C(=O)N2CCC3(CC2)C(=O)N(C)c2ccccc23)cs1`, the “% Inhibition” value is -17% and the Z score worked out at 3.19.
Take `CCS(=O)(=O)[C@@H](C)c1nc(C2CC2)nn1-c1ccc(C)c(C)c1`: the “% Inhibition” value turned out to be 1% and the Z score was -0.23.
As to `Cc1nc(-c2cc3ncccn3n2)n(C(C)(C)C)n1`, the “% Inhibition” value was -6% and the Z score is on record as 1.19.
`COc1cncc(S(=O)(=O)NCc2ocnc2C)c1`: the “% Inhibition” value was -7% and the Z score is given as 1.27.
Turning to `O=C(Nc1ccn(-c2ccccc2)n1)NC1CCOC(C2CC2)C1` (stereo not given), the “% Inhibition” value is recorded as -6% and the Z score came to 0.49.
For `CC(C)(C)n1ncn(Cc2nccn2C(F)F)c1=O`, the “% Inhibition” value is -10% and the Z score is 1.15.
As for `CC(C)(O)CNS(=O)(=O)c1ccc(Cl)cc1`, the “% Inhibition” value is reported as 3% and the Z score was -0.43.
`O=C(O)C[C@H]1CNCCN(C(=O)CCCCc2ccccc2)C1`: the “% Inhibition” value is -13% and the Z score is given as 1.71.
Regarding `CCc1noc(CN2C[C@@](C)(Cc3ccc4c(c3)OCO4)CCC2=O)n1`, the “% Inhibition” value is listed as -13% and the Z score was 1.17.
Regarding `Cc1noc(C)c1N(C)C(=O)Nc1cccnc1`, the “% Inhibition” value is -2% and the Z score amounted to 0.36.
Consider `CC(=O)N1C[C@H]2CN(C(=O)c3ccc(C)c(C)c3)C[C@@]2(C(=O)N2CCCC2)C1`, for which the “% Inhibition” value was -9% and the Z score is 1.24.
The matching figures for `CCN(CCN1CCOCC1)C(=O)c1cc2n(n1)CCN(C(C)=O)C2`: -7% and 1.08.
For `COc1ccccc1C(=O)N1CCC([C@H](NC(=O)c2ccc3c(c2)OCO3)C(=O)NC(C)C)CC1`, the “% Inhibition” value worked out at 32% and the Z score was -0.9.
Turning to `O=C1C[C@@]2(CCCN(C(=O)CCc3cccc4c3OCO4)C2)CN1`, the “% Inhibition” value is -10% and the Z score amounted to 1.69.
As for `CC(C)(C)NC(=O)C1CCN(c2cc(-c3cccc(F)c3)ncn2)CC1`, the “% Inhibition” value turned out to be 3% and the Z score was -0.39.

(Values after ChEMBL document CHEMBL4888484, “Replenishing the malaria drug discovery pipeline: Screening and hit evaluation of the MMV Hit Generation Library 1 (HGL1) against asexual blood stage Plasmodium falciparum ,using a nano luciferase reporter read-out” (2022).)
